The other results are listed elsewhere or left out.
Target: T1, OsWOX13 (Oryza sativa, UniProt Q5QMM3 1-267)
T1 sequence: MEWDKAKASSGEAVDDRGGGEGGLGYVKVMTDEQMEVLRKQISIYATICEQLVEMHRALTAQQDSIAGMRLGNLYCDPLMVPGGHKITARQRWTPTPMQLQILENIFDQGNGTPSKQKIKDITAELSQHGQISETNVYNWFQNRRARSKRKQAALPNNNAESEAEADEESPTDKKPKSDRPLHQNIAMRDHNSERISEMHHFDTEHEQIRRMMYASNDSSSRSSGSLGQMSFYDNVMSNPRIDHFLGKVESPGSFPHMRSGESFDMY
Assay: protein-binding microarray (RPBM); PBS, 2% BSA, 51.3 ng/ul salmon testes DNA, 50 uM zinc acetate, 200 nM TF, 25 C, 1 h; high values mean tight binding
Details: protein: recombinant; tags: N-terminal polyhistidine and DsRed monomer fusion (pET32a); label: CyDye5-dUTP incorporated in the synthesized complementary strand; 3' TTTTT single-stranded linker to array surface; dsDNA, one strand shown
Summary of the method: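 Per-feature fluorescence intensity (arbitrary units), read on an Axon 4000B scanner, is the binding signal. Transcription factors carrying an N-terminal polyhistidine tag and DsRed fusion were expressed in E. coli BL21-CodonPlus and purified on Ni–NTA. A custom Agilent array, made double-stranded by primer extension with Cy5-dUTP and blocked with 2% BSA, was incubated with 200 nM protein in PBS, 2% BSA, salmon testes DNA and 50 µM zinc acetate at 25 °C for 1 h and then washed.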

Sequence | binding signal
CACGTCAAATTTGAGTCAATTCATGGTATTTATTTGGTTTCGGAGTCACCTAGTGCAG | 4780 fluorescence intensity (a.u.)
GAGAAATTAAATCACCTTGAATGTTACAAAATTAAGGAGTCGGAGTCACCTAGTGCAG | 10200 fluorescence intensity (a.u.)
CATTCAATTTAAGTGTGAGGTATTATATACAGTATAGCATCGGAGTCACCTAGTGCAG | 3980 fluorescence intensity (a.u.)
CCATGTACTTTGATTACCATGATACGATCATTTGATAATGCGGAGTCACCTAGTGCAG | 5770 fluorescence intensity (a.u.)
GATATTTAATTATTTACACTCTTTAATTATTCCATATCTTCGGAGTCACCTAGTGCAG | 20900 fluorescence intensity (a.u.)
ATATAATTTATTTTGAACGATTTGCACAAGACGGTGTGAACGGAGTCACCTAGTGCAG | 34400 fluorescence intensity (a.u.)
TACATATAATTGAGGGAGCCAACGTGGACTTATTCCTTTTCGGAGTCACCTAGTGCAG | 15700 fluorescence intensity (a.u.)
TTTGAATGATTTTCTCCAAATTTTGGTCAAATTTACTGTTCGGAGTCACCTAGTGCAG | 39400 fluorescence intensity (a.u.)
TCTAAATTTATACAGTGTTAGTTGTACTGTTTTCTATAGGCGGAGTCACCTAGTGCAG | 23600 fluorescence intensity (a.u.)
CTGTAAGATTAATCAGCTTAATTAGCAGCTATAACTAGCTCGGAGTCACCTAGTGCAG | 20500 fluorescence intensity (a.u.)
CATAATTTTCGTGTTTGTCCAACATGACATCATTTTCTTGCGGAGTCACCTAGTGCAG | 16200 fluorescence intensity (a.u.)
AGGTATTTTGCCAATCATCTGCATGCAAGTTATGAGGTCTCGGAGTCACCTAGTGCAG | 11100 fluorescence intensity (a.u.)
ATAAGTACTCGGTTTGTTGATTGGTTCGTGCGCGACAGCACGGAGTCACCTAGTGCAG | 14100 fluorescence intensity (a.u.)
CCCCTCTGTTCTAATTAGAACCGGCACTAATCAAATCCAACGGAGTCACCTAGTGCAG | 8470 fluorescence intensity (a.u.)
GTTTAGACAGCTCCACAACTCCACTCCAGACTCAACTCCTCGGAGTCACCTAGTGCAG | 4110 fluorescence intensity (a.u.)
GCCCTGATTATATAATCTTCCTCGTTAATCACAGTTTCTACGGAGTCACCTAGTGCAG | 35400 fluorescence intensity (a.u.)
CAATTTAATTTACTCTCTCCTGCATATGCCAAATGCTTCTCGGAGTCACCTAGTGCAG | 8430 fluorescence intensity (a.u.)
AATAATAATAATAAATTGCCTACCAGCAACACTGCAAGTCCGGAGTCACCTAGTGCAG | 5300 fluorescence intensity (a.u.)
TCAAAATTATGTTTCAGATTCAAATTTTGGTATCGGTGTACGGAGTCACCTAGTGCAG | 15100 fluorescence intensity (a.u.)
TAATCCAGTTTAGTTAACTAATTAATTCCCTAAAATGCTACGGAGTCACCTAGTGCAG | 21600 fluorescence intensity (a.u.)
CGGACAACGTGACTGGCTTCCGTCGAAAACGTTACATTGACGGAGTCACCTAGTGCAG | 3480 fluorescence intensity (a.u.)

Sequence | binding signal
ATGTAATTTGACATGAGGTCAGGTGCTAATGTGTAAAATGCGGAGTCACCTAGTGCAG | 26600 fluorescence intensity (a.u.)
AATGTTAATTAGTATTGGTAGTATTACAGCTAACTGACAGCGGAGTCACCTAGTGCAG | 22300 fluorescence intensity (a.u.)
AGGCAAATTATATGTCAGCAAAACTTATTGACCATCTGTCCGGAGTCACCTAGTGCAG | 6350 fluorescence intensity (a.u.)
AAATGAGATGACAATGATGATGATGATGGTTTCATCACCCCGGAGTCACCTAGTGCAG | 4620 fluorescence intensity (a.u.)
AATTAATTATGGTATGTGATACTTTTCTCAATACGTAATACGGAGTCACCTAGTGCAG | 26400 fluorescence intensity (a.u.)
GTACAGTAACTCCTAATTAATGTTCTTGCTTCATCACACTCGGAGTCACCTAGTGCAG | 8120 fluorescence intensity (a.u.)
CTGTAATTGCACTGGAAATTCGTATAGTGGCACTGGAAAACGGAGTCACCTAGTGCAG | 12600 fluorescence intensity (a.u.)
GTCATTTAAAACCAATCACATCGCCTCTTGTGCCATTATCCGGAGTCACCTAGTGCAG | 6340 fluorescence intensity (a.u.)
TAAATAAATTATTCTATCTTGGATATGTTAGATATACATACGGAGTCACCTAGTGCAG | 18700 fluorescence intensity (a.u.)
AGCGCAACTAATTAAACTAGGCTTATCAGGCGACAGCGGCCGGAGTCACCTAGTGCAG | 4920 fluorescence intensity (a.u.)
TTTATCTATAACTGCAATTATAAATACTATGGCACATAGTCGGAGTCACCTAGTGCAG | 5660 fluorescence intensity (a.u.)
AACCAATCACTCGATATATGACTAATTCTTCTGGAGTTGTCGGAGTCACCTAGTGCAG | 26500 fluorescence intensity (a.u.)
GGCCGGCGGGTGGCCGGGTGGGGAGGAGGTCGGCAGGGCGCGGAGTCACCTAGTGCAG | 3810 fluorescence intensity (a.u.)
CAAATTTAAATTTGAATCGGGTATGTAAACTTTTGACTTACGGAGTCACCTAGTGCAG | 15200 fluorescence intensity (a.u.)
GACAAGAGGGTAGTAAATTGATTACTATTTAGTTGTTCTGCGGAGTCACCTAGTGCAG | 10100 fluorescence intensity (a.u.)
GATTGATTGGATAGAGCTCCTACCAATCCACTTTCTTGTTCGGAGTCACCTAGTGCAG | 34400 fluorescence intensity (a.u.)
GTTTAATTATTTAATGTTATCTTCAATATTAGACTATGGCCGGAGTCACCTAGTGCAG | 43100 fluorescence intensity (a.u.)
ACCAAATTAATTTATTAAACATAAAATTGAATATATTTTGCGGAGTCACCTAGTGCAG | 46500 fluorescence intensity (a.u.)
GATTAATTAATTATTATCCATTGTACACTTCGAAAATTGGCGGAGTCACCTAGTGCAG | 60500 fluorescence intensity (a.u.)
TTGATAGGAACTTTATTGGAGCTCCACGAATCTCCCAGGCCGGAGTCACCTAGTGCAG | 5980 fluorescence intensity (a.u.)
CCTAAATTTTGATAGCAGAATCGTATTGTCACTTTACATACGGAGTCACCTAGTGCAG | 9530 fluorescence intensity (a.u.)

Source: publication PMC7819943, “Rice protein-binding microarrays: a tool to detect cis-acting elements near promoter regions in rice”
